Reference: the antibiotic and cytotoxicity screens of Wong et al. (2023)
The list shows a part of the results.

tested on: S. aureus RN4220; assay: growth inhibition call (relative growth <= 0.2); settings: 50 µM

SMILES | growth inhibition call
O=C(O)[C@@H](O)[C@H](O)C(=O)O | inactive
C[C@H]1CN([C@@H](C)CO)C(=O)c2cc(NC(=O)CCN3CCOCC3)ccc2O[C@@H]1CN(C)C(=O)Nc1ccc(F)cc1 | inactive
COC(=O)C[C@@H]1CC[C@H]2[C@@H](COc3ccc(NS(=O)(=O)c4ccccc4Cl)cc3C(=O)N2C)O1 | inactive
CC(C)C1=CC2=CCC3C(C)(C(=O)O)CCCC3(C)C2CC1 (stereo unspecified) | active
COc1ccc(S(=O)(=O)N(C)C[C@@H]2Oc3ccc(NS(=O)(=O)c4cccs4)cc3C(=O)N([C@@H](C)CO)C[C@H]2C)cc1 | inactive
Cc1noc(C)c1NC(=O)N(C)C[C@H]1Oc2ccc(NC(=O)CCN3CCOCC3)cc2CC(=O)N([C@H](C)CO)C[C@H]1C | inactive
COc1ccc(C#Cc2cnc3c(c2)C(=O)N([C@H](C)CO)C[C@H](C)[C@H](CN(C)S(=O)(=O)c2ccc(F)cc2)O3)cc1OC | inactive
C[C@@H]1CN([C@@H](C)CO)C(=O)c2c(c3ccccc3n2C)-c2ccccc2CO[C@@H]1CN(C)Cc1cccc(F)c1 | inactive
O=C(CCCCCNC(=O)OCc1ccc(CO[C@@H]2C[C@H](c3ccc(Br)cc3)C=C(C(=O)N3CCCCCCC3)O2)cc1)NO | inactive
CCCNC(=O)N(C)C[C@H]1Oc2ncc(-c3ccc(C(=O)N(C)C)cc3)cc2C(=O)N([C@@H](C)CO)C[C@H]1C | inactive
C[C@@H]1CN([C@@H](C)CO)C(=O)c2cccc(NS(=O)(=O)c3ccc(F)cc3)c2O[C@H]1CN(C)C(=O)Nc1ccc(C(F)(F)F)cc1 | inactive
